The supplement of paper PMC3334620
In all, about 33,000 sequences were measured (“E-score (-0.5 to 0.5)”: median about -0.035, highest 2% from about 0.35 on). The list shows a part of the results.

The sequences below were run against T1, Pdr3 (UniProt P33200) (assay: PBM E-score (8-mer binding enrichment) (E-score (-0.5 to 0.5)); higher = stronger / more preferred TF binding; most listed sequences are background and not binding sites). Settings: protein concentration: 200 nM; construct: GST-full length.
T1 sequence: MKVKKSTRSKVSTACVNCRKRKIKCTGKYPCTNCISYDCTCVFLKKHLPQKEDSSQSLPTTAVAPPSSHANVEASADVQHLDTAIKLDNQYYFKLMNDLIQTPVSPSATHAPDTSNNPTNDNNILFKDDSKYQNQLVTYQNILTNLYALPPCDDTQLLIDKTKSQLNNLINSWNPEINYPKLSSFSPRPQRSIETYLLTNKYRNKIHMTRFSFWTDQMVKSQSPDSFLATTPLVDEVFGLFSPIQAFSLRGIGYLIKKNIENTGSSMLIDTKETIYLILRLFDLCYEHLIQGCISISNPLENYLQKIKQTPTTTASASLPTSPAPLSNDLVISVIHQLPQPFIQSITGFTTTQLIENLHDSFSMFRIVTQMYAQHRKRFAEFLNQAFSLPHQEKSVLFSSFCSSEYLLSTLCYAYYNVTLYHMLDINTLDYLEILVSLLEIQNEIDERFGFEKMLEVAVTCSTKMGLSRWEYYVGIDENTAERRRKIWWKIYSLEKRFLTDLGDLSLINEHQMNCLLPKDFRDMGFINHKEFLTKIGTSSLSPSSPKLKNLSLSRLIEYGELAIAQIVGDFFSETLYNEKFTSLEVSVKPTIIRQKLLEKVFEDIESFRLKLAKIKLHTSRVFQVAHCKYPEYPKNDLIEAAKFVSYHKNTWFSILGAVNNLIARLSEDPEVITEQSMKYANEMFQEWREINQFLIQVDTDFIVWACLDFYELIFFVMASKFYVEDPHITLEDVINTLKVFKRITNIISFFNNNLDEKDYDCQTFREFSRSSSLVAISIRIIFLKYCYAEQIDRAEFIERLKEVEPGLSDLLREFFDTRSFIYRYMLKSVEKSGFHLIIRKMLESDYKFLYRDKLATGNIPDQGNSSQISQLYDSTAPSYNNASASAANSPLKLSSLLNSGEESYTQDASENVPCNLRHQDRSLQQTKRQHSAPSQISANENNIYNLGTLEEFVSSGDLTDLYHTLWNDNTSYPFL
Method in brief: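 E-scores (a modified Wilcoxon-Mann-Whitney statistic) were assigned by the Universal PBM Analysis Suite to every ungapped eight-base word pooled with its reverse complement. The input came from universal all-10-mer Agilent arrays made double-stranded by primer extension and probed with GST-tagged yeast transcription factors at about 100-200 nM. Fluorescent anti-GST detected bound protein, and masliner normalised the scans.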

Sequence | PBM E-score
CTAAATGA | -0.0538
AAGCCCTC | -0.169
AAAGTGGT | -0.0405
ACACATAC | 0.00409
ATCAAGCC | -0.13
GGACTGAA | -0.108
CCAGTGTC | -0.0301
AGCGGTTC | -0.0732
ACACCTAA | -0.157
ACGGAATG | 0.432
CAGAAACA | -0.148
GCAAACTA | -0.0365
AATCCGAT | 0.285
CTAAACAA | -0.208
ATCCCCCG | 0.278
ACCAACCT | -0.0633
CGAGGGGA | 0.0165
CGTTAATC | 0.0266
AGGTAAAT | -0.177
CGGGGCTC | 0.107
GGTGATAA | 0.0321
GGGAATAC | 0.162
GGATGCCA | -0.247
GGTCAGTA | -0.0368
ACAGTCTA | -0.209

Sequence | PBM E-score
CCACTTGA | -0.085
TAGCACTA | -0.216
GCTATTAC | -0.0754
CAGGAAAC | -0.0475
AACTTACG | -0.0454
TTAATCAA | -0.0535
GTACTATA | 0.0634
CCGAGACC | 0.244
GGGAAACC | 0.149
AAATCCGG | 0.39
GAACCGAA | 0.146
AAGTTGAC | -0.0507
CATCACCC | 0.23
GGAGCAAC | 0.0427
ACAGCGCT | 0.0308
CAAAAGCA | -0.153
GTGAAAAC | 0.0636
AGCGAAGC | -0.115
ACCCAACT | -0.161
AACCCCGC | 0.181
AATGCTCG | 0.108
CAAAAACA | -0.133
AATTGTTA | 0.0374
CAATAAAC | 0.0697
CCCTTCCA | -0.00559

Sequence | PBM E-score
GATTGAAC | -0.0537
ACGATATC | 0.103
TACATGCA | -0.149
AACGAATC | 0.134
ACCGATCA | 0.0886
ACTTTGCA | 0.00219
TACTCAAA | -0.0878
CCGTGTTC | 0.302
CCAGCCTA | -0.182
ATTGGTAC | 0.00164
ACGTTACA | -0.295
AACAGCGG | 0.0391
TCTCGAAA | -0.172
CGGGCTAG | 0.0893
GGTGGAAC | -0.0744
TGCGGAAA | 0.357
CACTAGAG | -0.16
AGTCGCGG | 0.0617
ACATATCC | 0.0848
GAGCCTCC | -0.0141
TAGATGCA | -0.206
ACTGTTCC | 0.222
AAGTCCCG | 0.222
AAATTGTC | 0.0406
ACGAGAAA | 0.119

Sequence | PBM E-score
AGCTTTGC | -0.0649
AAGTTAAT | -0.114
ATGTGCGC | 0.0633
CAGTGGAG | -0.0442
CGGCTTCA | 0.24
AGGCGTAG | -0.142
CGCTCGGC | 0.234
CCCGACCA | 0.155
ACAAGCAG | -0.164
CACTTGCG | -0.123
ACGGACGT | 0.137
CAATTGCA | -0.0954
GATGAGCA | -0.097
AATAGAAA | 0.0203
CACAAAGC | -0.0103
GTCCGCAC | 0.215
GAACCCTA | -0.0298
AGAGTTTC | -0.136
CAGGAGTA | -0.107
CGGATTTC | 0.283
TCAGGGGA | -0.0352
AAATCTCG | 0.125
AGTCCCAT | -0.136
TCTGTCCA | 0.0987
GGTTCGAA | 0.0679

Sequence | PBM E-score
CAGTGAGG | -0.309
CCTCTCAA | 0.0885
CCCCGCAA | 0.198
CCACCTTC | -0.19
CGCGGCCA | 0.296
GTAGCTTA | -0.0826
CATCCTCC | -0.139
AGAACTTG | -0.226
AATGGCTG | -0.0728
AAGCCAGC | -0.092
CTTCTATC | -0.0244
CCGGCCTA | 0.184
CAACCCTA | -0.234
ATAGTCGC | -0.0229
ATGTGAGA | -0.0881
CGTGGCTC | -0.134
ATTACTCG | 0.0715
ATACTGTG | -0.0652
ATCATTAC | 0.0179
CCGCATTC | 0.192
ACCACTCA | -0.0827
CCTCGCCC | -0.00414
ACGGGGCT | -0.0607
CTAATCAG | -0.0177
GTTGATTA | 0.0474

Sequence | PBM E-score
CAGCACAA | 0.00828
ACAAGAAC | 0.123
CCGCCATC | 0.0607
TATCTACA | -0.0547
GAGGTAAC | 0.106
CACAATGG | 0.0941
CATCATTA | 0.195
TTATATAA | 0.176
GAGCATGC | -0.0163
AGCGGCGG | 0.335
AGCATATA | 0.0856
CGCCCCAG | 0.0925
CCTTGATC | 0.033
ACATGAAG | -0.0477
CCAACTGC | 0.0661
ACAGCGGA | 0.298
AAGCGGGA | 0.198
CACCGAGA | 0.00833
AACCGCAC | 0.0403
CTCTACAA | -0.134
GGGTCAGA | -0.145
AGATACAA | -0.00158
GATTAGAC | -0.154
GCACATGC | -0.0153
GGTGCTAC | -0.148

Sequence | PBM E-score
CCGGATTA | 0.385
AGCGGACC | 0.175
CTGTCGCA | -0.0708
ATAACGGC | 0.135
ATTGCTTA | -0.122
ACCAGAAT | -0.0736
CATAAACG | -0.0208
ACACATCG | -0.245
GGCGTCAA | -0.0443
ATTTTGTG | 0.0339
ACCCGCAT | 0.196
CCACAGCG | -0.0122
GCCCGCCA | 0.163
CAGCTTAG | -0.161
ATTTGCAC | -0.0996
ATACTCAC | -0.141
CGTACATC | -0.0165
ATGAGGGG | -0.161
GAGTAAGC | -0.116
CCTACGGA | 0.239
GCCGTTTA | 0.0844
CGTTTGTA | -0.0104
